The structures appear in SMILES notation. Out of some 310,000 compounds screened, about 2,200 (0.71%) showed an effect of 50% or more. Effects have a minus sign here. The list shows a part of the results.

human ether-à-go-go-related gene (hERG) potassium channel, sequence (Q12809 whole entry, looked up): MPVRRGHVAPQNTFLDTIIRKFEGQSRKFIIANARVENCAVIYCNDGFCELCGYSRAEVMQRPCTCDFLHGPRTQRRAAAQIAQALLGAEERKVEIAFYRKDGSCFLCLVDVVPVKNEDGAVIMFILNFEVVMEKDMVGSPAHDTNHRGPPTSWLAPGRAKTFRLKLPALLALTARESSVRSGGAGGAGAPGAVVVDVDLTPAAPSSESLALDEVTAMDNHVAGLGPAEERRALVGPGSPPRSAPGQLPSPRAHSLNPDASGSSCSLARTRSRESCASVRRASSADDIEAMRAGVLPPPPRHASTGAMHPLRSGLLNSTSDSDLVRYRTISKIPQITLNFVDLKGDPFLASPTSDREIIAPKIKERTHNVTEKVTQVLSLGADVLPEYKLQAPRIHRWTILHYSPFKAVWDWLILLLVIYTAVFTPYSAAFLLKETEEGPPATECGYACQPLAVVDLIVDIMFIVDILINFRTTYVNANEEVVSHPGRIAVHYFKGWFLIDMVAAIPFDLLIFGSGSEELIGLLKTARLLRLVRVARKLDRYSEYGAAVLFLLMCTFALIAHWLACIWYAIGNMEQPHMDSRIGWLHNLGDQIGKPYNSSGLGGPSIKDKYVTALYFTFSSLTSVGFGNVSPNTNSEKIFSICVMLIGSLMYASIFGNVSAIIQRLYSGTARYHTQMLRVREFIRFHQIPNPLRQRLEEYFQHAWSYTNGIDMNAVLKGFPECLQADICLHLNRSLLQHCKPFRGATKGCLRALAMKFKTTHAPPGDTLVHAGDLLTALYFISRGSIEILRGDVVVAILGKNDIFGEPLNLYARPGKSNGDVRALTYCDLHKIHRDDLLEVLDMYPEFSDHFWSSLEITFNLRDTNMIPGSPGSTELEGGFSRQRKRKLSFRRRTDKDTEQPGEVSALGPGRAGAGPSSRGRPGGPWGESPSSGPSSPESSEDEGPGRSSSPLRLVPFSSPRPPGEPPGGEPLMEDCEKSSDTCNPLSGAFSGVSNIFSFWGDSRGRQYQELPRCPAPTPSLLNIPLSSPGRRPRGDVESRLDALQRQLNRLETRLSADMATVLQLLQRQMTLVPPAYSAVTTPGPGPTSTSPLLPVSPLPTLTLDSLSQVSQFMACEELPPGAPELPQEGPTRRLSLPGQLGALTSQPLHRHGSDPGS

The assay concerns the target human ether-à-go-go-related gene (hERG) potassium channel (human, UniProt Q12809). As to the kind of experiment: primary screen, population patch clamp on CHO cells stably expressing hERG.
As for `Cc1cc(Br)ccc1NS(=O)(=O)c1c(C)[nH]c(=O)[nH]c1=O`, the “hERG current change (%, negative = inhibition) at 1uM” value is recorded as 11.5%.

For `O=C(COc1ccccc1)N1CCNC1=O`, the “hERG current change (%, negative = inhibition) at 1uM” value is 5.99%.

`COc1ccc(S(=O)(=O)N2CCOCC2)cc1C(=O)Nc1nc2ccccc2s1`: the “hERG current change (%, negative = inhibition) at 1uM” value is recorded as 3.58%.

Regarding `Cc1ccc(-c2csc(NC(=S)NC(=O)c3cc4ccccc4o3)n2)cc1`, the “hERG current change (%, negative = inhibition) at 1uM” value amounted to 7.36%.

In the case of `Clc1ccc(OCCn2ccnc2)c(Br)c1`, the “hERG current change (%, negative = inhibition) at 1uM” value amounted to 7.74%.

For `Cc1cc(C)nc(NC(=O)c2cccc([N+](=O)[O-])c2C)n1`, the “hERG current change (%, negative = inhibition) at 1uM” value is recorded as -21.2%.

Regarding `O=C(c1ccc([N+](=O)[O-])cc1)N1CCN=C1SCc1ccccc1`, the “hERG current change (%, negative = inhibition) at 1uM” value was -6.39%.

Turning to `CC(C)c1ccc(NC(=O)CC2Oc3ccccc3NC2=O)cc1` (centres unmarked), the “hERG current change (%, negative = inhibition) at 1uM” value was determined as 10.7%.

In the case of `COc1ccc(C(c2nnnn2Cc2cccs2)N2CCN(c3ccc(F)cc3)CC2)cc1OC` (centres unmarked), the “hERG current change (%, negative = inhibition) at 1uM” value is -19.5%.

On to `COc1ccc(Cl)cc1NC(=O)N1CCN(c2ccccc2OC)CC1`, for which the “hERG current change (%, negative = inhibition) at 1uM” value is reported as 5.02%.

As for `CC(C)(C)CC(C)(C)c1ccc(OCC(=O)N/N=C/c2ccc(S(=O)(=O)[O-])o2)cc1`, the “hERG current change (%, negative = inhibition) at 1uM” value was found to be 11.4%.

Consider `COc1cc2ncnc(NCc3ccccc3Cl)c2cc1OC`, for which the “hERG current change (%, negative = inhibition) at 1uM” value stood at 6.63%.

In the case of `COc1ccccc1CNC(=O)COc1ccc2c(c1)CCC2`, the “hERG current change (%, negative = inhibition) at 1uM” value amounted to 15%.

For the compound `Cc1ccc(SCC(=O)OCC(=O)NCc2ccco2)cc1`, the “hERG current change (%, negative = inhibition) at 1uM” value is listed as 1.59%.

Turning to `Cc1n[nH]c(C)c1CCCCOc1ccccc1`, the “hERG current change (%, negative = inhibition) at 1uM” value is 3.72%.

For `COc1cc(/C=N/N2CCN(c3ccccc3)CC2)cc(OC)c1OC(C)=O`, the “hERG current change (%, negative = inhibition) at 1uM” value is 2.2%.

Take `CN(C)c1cc(-c2ccc(F)cc2)oc(=O)c1Cl`: the “hERG current change (%, negative = inhibition) at 1uM” value turned out to be 7.03%.

For the compound `CC1CCCCN1S(=O)(=O)c1cccc(S(=O)(=O)N2CCOCC2)c1` (centres unmarked), the “hERG current change (%, negative = inhibition) at 1uM” value stood at 1.3%.

On to `CCS(=O)(=O)N1CCC(NC(C)=O)(c2ccccc2)CC1`, for which the “hERG current change (%, negative = inhibition) at 1uM” value is reported as 11.5%.

Regarding `COc1cc(OC)nc(NC(=O)COC(=O)c2cccc(Cl)c2)n1`, the “hERG current change (%, negative = inhibition) at 1uM” value stood at 0.488%.

As for `c1ccc2c(c1)[nH]c1c(N3CCC4(CC3)OCCO4)ncnc12`, the “hERG current change (%, negative = inhibition) at 1uM” value is -5.34%.

As to `COc1ccc(S(=O)(=O)N2CCN(C(=O)Cc3cccs3)CC2)cc1`, the “hERG current change (%, negative = inhibition) at 1uM” value turned out to be 1.32%.

Turning to `O=C(Nc1ccncc1)c1cc2ccccc2cc1O`, the “hERG current change (%, negative = inhibition) at 1uM” value is on record as 8.27%.

Regarding `CCOC(=O)c1sc(C)c2c(=O)n(CC(=O)c3ccc(Br)cc3)nnc12`, the “hERG current change (%, negative = inhibition) at 1uM” value was determined as 7.69%.

On to `CC(C)Sc1nnc([C@H](Cc2ccccc2)NC(=O)OC(C)(C)C)o1`, for which the “hERG current change (%, negative = inhibition) at 1uM” value is on record as 7.44%.

Regarding `Cn1c(-c2cnn(-c3ccccc3)c2-n2cccc2)n[nH]c1=S`, the “hERG current change (%, negative = inhibition) at 1uM” value came to 17%.

These data come from paper PMC4336329 (PLoS ONE, 2015).
